{"source": "paper PMC4336329", "about": "(PLoS ONE, 2015)", "note": "Hit rate of the full screen: of about 310,000 compounds, about 14,000 (4.5%) showed an effect of 50% or more. Effects have a minus sign here. This is one part of the list.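 Also: peak tail current of the secondary pulse compared with the same well before compound.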"}
{"target": "human ether-à-go-go-related gene (hERG) potassium channel (human, UniProt Q12809)", "sequence (Q12809 whole entry, looked up)": "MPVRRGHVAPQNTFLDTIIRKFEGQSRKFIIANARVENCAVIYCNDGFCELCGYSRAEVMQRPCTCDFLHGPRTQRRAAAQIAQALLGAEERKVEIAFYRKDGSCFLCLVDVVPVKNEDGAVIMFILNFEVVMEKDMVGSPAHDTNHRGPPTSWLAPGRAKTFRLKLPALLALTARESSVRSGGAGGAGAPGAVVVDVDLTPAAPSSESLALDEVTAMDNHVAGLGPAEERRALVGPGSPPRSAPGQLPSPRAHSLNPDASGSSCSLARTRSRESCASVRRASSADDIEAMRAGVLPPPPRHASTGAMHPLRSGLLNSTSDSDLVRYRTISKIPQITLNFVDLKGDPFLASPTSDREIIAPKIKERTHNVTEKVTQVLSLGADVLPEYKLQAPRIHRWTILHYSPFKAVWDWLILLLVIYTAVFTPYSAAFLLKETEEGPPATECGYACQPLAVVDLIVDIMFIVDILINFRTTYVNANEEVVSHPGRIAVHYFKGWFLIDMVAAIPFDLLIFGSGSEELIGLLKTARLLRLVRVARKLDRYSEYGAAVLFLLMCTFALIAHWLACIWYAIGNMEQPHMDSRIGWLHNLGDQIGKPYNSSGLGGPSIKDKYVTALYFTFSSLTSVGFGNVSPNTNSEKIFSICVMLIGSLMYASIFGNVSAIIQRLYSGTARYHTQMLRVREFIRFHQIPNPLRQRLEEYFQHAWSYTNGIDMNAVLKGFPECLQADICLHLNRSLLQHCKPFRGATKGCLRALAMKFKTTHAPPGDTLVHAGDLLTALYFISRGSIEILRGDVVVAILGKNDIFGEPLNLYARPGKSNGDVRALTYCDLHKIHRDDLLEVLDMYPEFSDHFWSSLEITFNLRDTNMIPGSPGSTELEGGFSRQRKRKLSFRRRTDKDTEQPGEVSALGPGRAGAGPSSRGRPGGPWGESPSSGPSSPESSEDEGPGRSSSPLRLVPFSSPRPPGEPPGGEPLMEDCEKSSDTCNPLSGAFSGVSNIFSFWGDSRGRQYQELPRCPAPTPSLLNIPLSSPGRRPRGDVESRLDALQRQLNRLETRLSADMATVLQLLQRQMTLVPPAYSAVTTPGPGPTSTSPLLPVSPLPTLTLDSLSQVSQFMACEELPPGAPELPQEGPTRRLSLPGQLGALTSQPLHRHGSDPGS", "assay": "primary screen, population patch clamp on CHO cells stably expressing hERG", "units": {"hERG current change (%, negative = inhibition) at 10uM": "%"}}
{"smiles": "NC(=O)CC(NC(=O)Cc1cccc2ccccc12)c1ccc(N2CCC(Cc3ccccc3)CC2)c([N+](=O)[O-])c1", "note": "(stereo not shown)", "hERG current change (%, negative = inhibition) at 10uM": 8.77}
{"smiles": "COc1ccc(CSc2nncn2C)cc1F", "hERG current change (%, negative = inhibition) at 10uM": 17.6}
{"smiles": "CSc1ccc(CNC(=O)C2CCC(=O)N(Cc3cccc(F)c3)C2)cc1", "note": "(stereo not shown)", "hERG current change (%, negative = inhibition) at 10uM": -62.4}
{"smiles": "Cc1nn(-c2ccccc2)c(N)c1Sc1ccc([N+](=O)[O-])cc1", "hERG current change (%, negative = inhibition) at 10uM": -75.2}
{"smiles": "CCc1nc(Nc2cc(OC)ccc2OC)c2oc3ccccc3c2n1.Cl", "hERG current change (%, negative = inhibition) at 10uM": 15}
{"smiles": "CN(C)S(=O)(=O)c1ccc(N=Cc2c(C(F)(F)F)[nH][nH]c2=O)cc1", "hERG current change (%, negative = inhibition) at 10uM": 23}
{"smiles": "O=C(c1ccco1)N1CCCN(C(=O)c2ccco2)CC1", "hERG current change (%, negative = inhibition) at 10uM": 4.51}
{"smiles": "CCOC(=O)C1=C(COC(=O)/C=C/c2cccc(Cl)c2)NC(=O)NC1C", "note": "(stereo not shown)", "hERG current change (%, negative = inhibition) at 10uM": 14.9}
{"smiles": "CCN1CCN(C(=O)c2ccccc2N(Cc2ccccc2)S(=O)(=O)c2ccc(OC)cc2)CC1", "hERG current change (%, negative = inhibition) at 10uM": -73.1}
{"smiles": "CCOc1c(CNCCNC(=O)c2nonc2N)cccc1OC.Cl", "hERG current change (%, negative = inhibition) at 10uM": 8.07}
{"smiles": "O=C(O)C(=O)O.O=[N+]([O-])c1ccc(OCCCCN2CCc3ccccc3C2)cc1", "hERG current change (%, negative = inhibition) at 10uM": -76.3}
{"smiles": "COc1ccc2cc(C3C(C#N)=C(N)OC(C)=C3C(C)=O)c(Cl)nc2c1", "note": "(stereo not shown)", "hERG current change (%, negative = inhibition) at 10uM": 4.14}
{"smiles": "CCn1cc(CN2CCCC(C(=O)c3ccc(-c4ccccc4)c(F)c3)C2)cn1", "note": "(stereo not shown)", "hERG current change (%, negative = inhibition) at 10uM": -57.6}
{"smiles": "CSc1ccccc1NC(=O)CN1CCCCC1", "hERG current change (%, negative = inhibition) at 10uM": 8.96}
{"smiles": "C/C=C/C=C/C(=O)O", "hERG current change (%, negative = inhibition) at 10uM": 15.4}
{"smiles": "COc1ccc(-c2oc3ccc(-c4ccc5c(c4)OCO5)cc3c2C#CC2(O)CCCCC2)cc1", "hERG current change (%, negative = inhibition) at 10uM": 11.4}
{"smiles": "CCN(CC)c1ccc(-n2cc3c(=O)n(C)c(=O)n(C)c3c2)cc1", "hERG current change (%, negative = inhibition) at 10uM": -7.37}
{"smiles": "CCOc1ccc(OCC)c(S(=O)(=O)NCCCN2CCOCC2)c1", "hERG current change (%, negative = inhibition) at 10uM": 3.09}
{"smiles": "CCOC(=O)N1CCN(C(=O)c2cc(C)c3c(C)nn(-c4ccccc4)c3n2)CC1", "hERG current change (%, negative = inhibition) at 10uM": -29.5}
{"smiles": "O=C1CC(c2ccco2)CC(O)=C1C=NCCN1CCNCC1", "note": "(stereo not shown)", "hERG current change (%, negative = inhibition) at 10uM": 2.1}
{"smiles": "COc1cccc(C2(C)NC(=O)N(CC(=O)c3cc(C)n(C4CC4)c3C)C2=O)c1", "note": "(stereo not shown)", "hERG current change (%, negative = inhibition) at 10uM": -35.8}
{"smiles": "Cc1cc(=O)[nH]c(SCC(=O)Nc2ccc(S(=O)(=O)N3CCOCC3)cc2)n1", "hERG current change (%, negative = inhibition) at 10uM": -3.3}
{"smiles": "CC(NC=O)c1nc2ccccc2n1CCc1ccccc1", "note": "(stereo not shown)", "hERG current change (%, negative = inhibition) at 10uM": 5.34}
{"smiles": "CC(Oc1ccc(S(=O)(=O)N2CCCC2)cc1[N+](=O)[O-])C(=O)N(C)c1ccccc1", "note": "(stereo not shown)", "hERG current change (%, negative = inhibition) at 10uM": -22.4}
{"smiles": "COC(=O)c1ccccc1NC1OC(=O)c2ccccc21", "note": "(stereo not shown)", "hERG current change (%, negative = inhibition) at 10uM": 18.9}
{"smiles": "CCN(CC)c1ccc(NC(=O)CSc2nc(C3CC3)nc3ccccc23)cc1C", "hERG current change (%, negative = inhibition) at 10uM": -11.2}
{"smiles": "NC(=O)C1CCN(c2ncnc3c(-c4ccccc4)nsc23)CC1", "hERG current change (%, negative = inhibition) at 10uM": 0.0719}
{"smiles": "Cc1ccc(N(C(=O)c2csnn2)C(C(=O)NC(C)(C)C)c2cccnc2)cc1", "note": "(stereo not shown)", "hERG current change (%, negative = inhibition) at 10uM": 6.44}
{"smiles": "O=C1NC(c2ccc(Br)cc2)=N/C1=C/c1ccco1", "hERG current change (%, negative = inhibition) at 10uM": 9.25}
{"smiles": "C#CCCc1cscc1/C=[N+](\\[O-])c1ccc(C(=O)OCC)cc1", "hERG current change (%, negative = inhibition) at 10uM": 11.4}
{"smiles": "Cc1ccccc1Cn1nnc2c1C(=O)c1ccccc1C2=O", "hERG current change (%, negative = inhibition) at 10uM": -1.21}
{"smiles": "CC(=O)CS(=O)(=O)c1ccc(Oc2ccc(S(=O)(=O)CC(C)=O)cc2)cc1", "hERG current change (%, negative = inhibition) at 10uM": 12.9}
{"smiles": "O=c1[nH]cnc2c1ncn2[C@@H]1O[C@H](CO)[C@@H](O)[C@H]1O", "hERG current change (%, negative = inhibition) at 10uM": 12.5}
{"smiles": "Cc1ccc(-n2c(C)nc3c(cnn3-c3ccc(C)c(C)c3)c2=O)cc1C", "hERG current change (%, negative = inhibition) at 10uM": 12.3}
{"smiles": "CCOc1cccc(CN(CC)CC2CCCN(CCc3cccc(OC)c3)C2)c1O", "note": "(stereo not shown)", "hERG current change (%, negative = inhibition) at 10uM": -66.7}
{"smiles": "COc1ccc(/C=C2/C(=O)N(c3ccccc3)N=C2C)c(OC)c1", "hERG current change (%, negative = inhibition) at 10uM": 5.11}
{"smiles": "Cc1nn(CC(=O)NNC(=O)c2cccc(Br)c2)c(C)c1[N+](=O)[O-]", "hERG current change (%, negative = inhibition) at 10uM": -8.92}
{"smiles": "CN(CCc1ccccc1)C(=O)c1cc(COc2ccc(F)cc2Cl)on1", "hERG current change (%, negative = inhibition) at 10uM": 15.6}
{"smiles": "O=C(Cc1ccc(Cl)cc1)Nc1ccc(C(=O)N2CCOCC2)cc1", "hERG current change (%, negative = inhibition) at 10uM": -1.78}
{"smiles": "Cc1cc(NC(=O)COc2coc(CN3CCN(c4ccccc4F)CC3)cc2=O)no1", "hERG current change (%, negative = inhibition) at 10uM": 4.78}
{"smiles": "O=C(N/N=C/c1cc(Br)cs1)c1ccccc1[N+](=O)[O-]", "hERG current change (%, negative = inhibition) at 10uM": 12.3}
{"smiles": "Cc1ccccc1-c1nc(CS(=O)(=O)CC(=O)NCCc2ccccc2)c(C)o1", "hERG current change (%, negative = inhibition) at 10uM": 1.61}
{"smiles": "Cc1n[nH]c(C)c1CCCOc1ccccc1", "hERG current change (%, negative = inhibition) at 10uM": 4.06}
